The campaign covered roughly 52,000 compounds. About 1,700 (3.3%) were called active. No stated cut-off is given here; in the data, active means survival mostly below about 52% (no sharp cut-off); inactive means mostly above about 56%. Some of the results follow.

For this assay, the system named is Wild type. The assay can be described thus: growth inhibition of S. aureus wild type versus tarO mutant, primary screen, teichoic acid synthesis inhibitors, RN4220, OD600 (AID 463173). The note with it: S. aureus RN4220 wild type/DeltatarO growth, OD600, 18 h, stronger effect = lower value, screened at 18.75 µg/mL (by protocol).
With `CCc1ccc(NC(=O)COCc2cc(-c3ccc(F)cc3)on2)cc1`, the survival was inactive: 75%.

`Cc1ccc(-c2cn3cccnc3n2)cc1NC(=O)Cc1ccccc1`: the survival is inactive: 89%.

Consider `O=S(=O)(c1ccccc1)c1nc(-c2ccccc2)oc1N1CCN(c2cccc(Cl)c2)CC1`, for which the survival is inactive: 86%.

On to `C=CCN(CC=C)C(=O)c1c(-c2ccccc2Cl)noc1C`, for which the survival was inactive: 101%.

With `CCc1ccccc1-n1c2c(cc(-c3nc(-c4ccc(Cl)cc4)cs3)c1=O)C(=O)CC(C)(C)C2`, the survival was inactive: 73%.

As for `COc1ccc(Cc2nc3ccc(C(=O)NCCc4ccccc4)cc3o2)cc1`, the survival was inactive: 69%.

`COc1ccc(CNC(=O)c2ccc3c(c2)CCN3S(=O)(=O)c2ccc(Cl)cc2)cc1`: the survival is inactive: 88%.

`Cc1ccc(-c2nn3c(=O)cc(CN4CCN(S(=O)(=O)c5ccc(Cl)cc5)CC4)nc3s2)cc1`: the survival is inactive: 74%.

In the case of `O=C(COc1ccc(F)cc1)NC1CC(=O)N(c2ccc3c(c2)OCCO3)C1` (stereo not given), the survival is inactive: 74%.

For `N#CCSc1nc(N)cc(N)n1`, the survival is inactive: 104%.

In the case of `COc1cccc(NC(=O)C2CCN(c3cc(C)nc4c(-c5ccc(Cl)cc5)c(C)nn34)CC2)c1`, the survival is inactive: 124%.

Regarding `CC(NC(=O)C1=Cc2ccccc2OC1)c1ccccc1` (stereo not given), the survival was inactive: 70%.

Turning to `CC(=O)Nc1ccc(NC(=O)Cn2c(=O)ccc3cc(S(=O)(=O)N4CCC(C)CC4)ccc32)cc1`, the survival was inactive: 91%.

As to `COc1cc2nc(SCC(=O)Nc3cccc(C)c3)n3nc(CCn4c(C)nc5ccccc54)nc3c2cc1OC`, the survival was inactive: 94%.

Turning to `CCOc1ccc(OCC)c(NS(=O)(=O)c2ccc3[nH]c(=O)ccc3c2)c1`, the survival was active: 0%.

With `CCCc1nc2ccccc2c(N)c1CC`, the survival is inactive: 103%.

As for `O=C(N/C(=C\c1ccco1)C(=O)N1CCCC1)c1ccccc1`, the survival was inactive: 110%.

With `COc1cc(C2NC(=O)N(C)C3=C2C(=O)N(c2ccccc2)C3)ccc1O` (stereo not given), the survival is inactive: 73%.

For `CCC(C)NC(=O)c1sc2nc(C)c(C(=O)Nc3ccc(C)cc3C)c(-c3ccc(Br)cc3)c2c1N` (stereo not given), the survival is inactive: 87%.

In the case of `Cc1ccc2[nH]c(=O)c3cc(C(=O)N4CCN(c5ccccc5F)CC4)sc3c2c1`, the survival is inactive: 75%.

Regarding `CC1=C(C(=O)Nc2ccc(C)c(C)c2)C2(CCCCCC2)OC1=O`, the survival is inactive: 118%.

In the case of `O=C(CSc1nc(-c2ccccc2)cc(=O)[nH]1)Nc1ccccc1F`, the survival was inactive: 86%.

As to `COc1ccc(-c2cnc(NCc3ccc(C)cc3)n2C)cc1`, the survival is inactive: 108%.

Consider `Cc1cccc(CSc2ncc(Cl)c(C(=O)Nc3sc4c(c3C#N)CCCC4)n2)c1`, for which the survival was inactive: 116%.

On to `COc1ccc(CCNC(=O)CSc2nc3ccccc3nc2Cc2ccc(C)cc2)cc1OC`, for which the survival was inactive: 52%.

(Values after PubChem BioAssay AID463173 (ICCB-Longwood Screening Facility, Harvard Medical School, 2010).)
